# Data taken from PubChem BioAssay AID485294 (National Center for Advancing Translational Sciences (NCATS), 2010).
# In all, about 370,000 compounds went through this assay and about 150 (0.041%) were called active. Inconclusive means that the source gave no clear call. Such entries were picked first, then a sample of the others. The call rests on the fitted dose curve; in most records, active means well fitted inhibition curve with a large enough effect; inconclusive means small, poorly fitted or top-dose-only effect; inactive means flat fitted curve, though single readings scatter. Potencies of inconclusive entries are left out as doubtful fits.
# Target: Beta-lactamase (Escherichia coli (strain K12)) (UniProt P00811)
# Assay: qHTS Inhibitors of AmpC Beta-Lactamase (assay with detergent); further: nearly all actives have a fitted effect of over 25% in size;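 on activity change, negative = inhibition: 0% = no-compound wells and -100% = no-enzyme wells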
# Conditions: AmpC hydrolysis of nitrocefin, absorbance 480 nm, 0.01% Triton; activity change, negative = inhibition: at 114 µM (top of the series)
# How it was run: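 AmpC (5.3 nM in the dispensed reagent) in 20 mM phosphate pH 7.0 with 0.01% (detergent screen) or 0.0001% Triton X-100 was preincubated with compounds for 15 min at room temperature. Nitrocefin was then added from an 800 uM solution, and hydrolysis was followed at 480 nm.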
# Potency means the concentration at half of the fitted maximal effect; tags describe the fitted curve by direction and shape.
# Chain of UniProt P00811 (P00811 whole entry, looked up): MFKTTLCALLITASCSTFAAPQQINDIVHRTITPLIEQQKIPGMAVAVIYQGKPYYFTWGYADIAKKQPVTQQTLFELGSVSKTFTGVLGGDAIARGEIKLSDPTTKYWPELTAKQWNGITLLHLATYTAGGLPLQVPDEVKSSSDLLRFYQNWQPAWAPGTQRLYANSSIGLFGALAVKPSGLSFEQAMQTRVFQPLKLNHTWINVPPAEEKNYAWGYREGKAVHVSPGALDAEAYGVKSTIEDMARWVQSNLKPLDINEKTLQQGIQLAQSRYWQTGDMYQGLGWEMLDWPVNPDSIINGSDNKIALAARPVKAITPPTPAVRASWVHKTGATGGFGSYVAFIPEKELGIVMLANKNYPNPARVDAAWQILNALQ
Structure (SMILES),Potency,"activity change, negative = inhibition"
Cc1cc(CNC(=O)[C@H](C)[C@@H]2C[C@@]2(C)[C@@H](NC(=O)OCc2ccccc2)c2ccccc2)nn1C,"inconclusive [inhibitor, partial curve, poor fit]",–
O=[N+]([O-])c1ccc(S(=O)(=O)Nc2nnc(C(F)(F)F)s2)cc1,–,inactive: 4.26%
COc1ccc(-c2cnnn2-c2ccc(NC(=O)c3ccccc3OC)cc2)cc1,–,inactive: 2.03%
CCOc1ccc(Cn2ccnc2CCl)cc1[N+](=O)[O-],"inconclusive [inhibitor, full curve]",–
Cc1c(C(=O)NCc2ccccn2)oc2ccccc12,"inconclusive [inhibitor, single point]",–
Cc1cc(O)c(C=Nc2cccc(Cl)c2)c(=O)o1,"inconclusive [inhibitor, partial curve, poor fit]",–
Cc1ccc2c(c1)c(C)c(C)n2CC(O)Cn1nc(C)c(Br)c1C (stereo not drawn),"inconclusive [inhibitor, full curve]",–
COc1ccc(C2=C(N3CCN(c4cccc(C)c4C)CC3)c3ccccc3C2=O)cc1,–,inactive: 15.5%
COCCN1C(=O)C(=O)/C(=C(/O)c2ccc(S(=O)(=O)N3CCCCC3)cc2)C1c1ccc(OC)cc1 (stereo not drawn),"inconclusive [inhibitor, partial curve, poor fit]",–
CCC(=O)OCC(=O)c1c(N)n(Cc2ccccc2)c(=O)n(C)c1=O,"inconclusive [inhibitor, full curve, poor fit]",–
Cc1cc(C(=O)CSC(C)c2nc3ccccc3c(=O)[nH]2)c(C)n1C (stereo not drawn),"inconclusive [inhibitor, full curve, poor fit]",–
CCCc1nc2oc(C(=O)OCC)c(N)c2c2c1COC(C)(C)C2,"inconclusive [inhibitor, full curve, poor fit]",–
Cc1ccc(NC(=O)C2CC(=O)Nc3nncn32)cc1 (stereo not drawn),–,inactive: -8.4%
CC(C)c1ccc(OCC(=O)N(c2ccccn2)C2CCCCC2)cc1,"inconclusive [inhibitor, full curve]",–
O=C(Nc1ccc2c(c1)OCO2)c1cnn2cccnc12,"inconclusive [inhibitor, single point]",–
O=C(c1ccc(Br)cc1)N(Cc1ccco1)c1ccccn1,–,inactive: 0.138%
CSc1ccc(/C=C(\NC(=O)c2ccc(C)cc2)C(=O)Nc2cccc(C)c2)cc1,"inconclusive [inhibitor, single point]",–
COc1ccc(CCN=Cc2ccc(O)cc2)cc1OC,"inconclusive [inhibitor, full curve, poor fit]",–
